# According to PubChem BioAssay AID2100 (National Center for Advancing Translational Sciences (NCATS), 2009):
# Several values for one entry are separate records, joined by “and”; a condition that tells them apart may be missing. Equal entries are not always repeated. In all, about 300,000 compounds went through this assay and about 1,200 (0.4%) were called active. Inconclusive results, whose numbers are uncertain, are shown with a selection of clear calls. Calls come from the whole dose curve; as a rule, active = well fitted inhibition curve with a large enough effect; inconclusive = small, poorly fitted or top-dose-only effect, or another doubt; inactive = no such curve, though single readings can be large or run the other way. Potencies of inconclusive entries are doubtful fits and often do not repeat. More than one record can exist for a structure, and the calls need not agree.
# Molecular target: Lysosomal alpha-glucosidase (Homo sapiens) (UniProt P10253)
# Assay: qHTS Assay for Inhibitors and Activators of Human alpha-Glucosidase Cleavage of Glycogen;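 for activity change, negative = inhibition: 0% = full enzyme reaction and -100% = no-enzyme basal signal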
# Conditions: recombinant GAA, glycogen substrate, Amplex Red glucose oxidase fluorescence; activity change, negative = inhibition: at 76.4 µM (top of the series) unless noted
# Summary of the method: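 Recombinant human enzyme (4 nM); glycogen substrate; 37 C, 40 min, pH 5.0. Readout: coupled glucose oxidase/Amplex Red fluorescence.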
# Potency is the fitted concentration of half-maximal effect.
Structure (SMILES),Potency,"activity change, negative = inhibition"
CCCCCn1c(-c2ccc(OC)c(OC)c2)nc2ccccc21,"inconclusive: 7.94 µM [inhibitor, single point]",–
Cc1ccc(CN2C(=O)c3oc4ccc(C)cc4c(=O)c3C2c2ccc(O)cc2)cc1 (centres undefined),inactive,–
Cc1ccc(CNC(=O)C23CN(Cc4ccccc4)CC2C(c2ccc([N+](=O)[O-])cc2)=NO3)cc1 (centres undefined),inactive,–
O=C(NNC(=O)c1ccccc1F)C1=NN(c2ccccc2)C(=O)CC1,active: 50.1 µM,–
CCn1cc(C(=O)NN)c(=O)c2cc(F)c(NC3CCCCC3)cc21,"inconclusive: 50.1 µM [inhibitor, single point]",–
COc1ccc(NCc2nnc(SCC#N)n2-c2ccccc2OC)cc1,"inconclusive: 12.5 µM [inhibitor, partial curve]",–
CCOC(=O)C1CCc2sc(N)c(C#N)c21 (centres undefined),active: 4.97 µM,–
COCCCNc1oc(-c2ccc(COc3ccc(Cl)cc3)o2)nc1C#N,"inconclusive: 39.8 µM [inhibitor, partial curve]",–
Cc1ccc2c(c1)nnn2C1CCN(S(=O)(=O)c2ccc(C(=O)O)cc2)CC1,"inconclusive: 17.8 µM [inhibitor, partial curve]",–
CC1CCCC/C1=N/Nc1ccc([N+](=O)[O-])cc1[N+](=O)[O-] (centres undefined),"inconclusive: 22.2 µM [inhibitor, partial curve]",–
N#CCCn1cc(/C=N/NC(N)=S)c(-c2ccccc2)n1,"inconclusive: 44.7 µM [inhibitor, single point]",–
COc1cccc2sc3ccc(NCc4ccc5c(c4)OCO5)cc3c(=O)c12,"inconclusive: 28.2 µM [activator, partial curve]",–
Cc1cccc(C)c1N1CCc2cn[nH]c21,"inconclusive: 22.4 µM [inhibitor, partial curve]",–
O=[N+]([O-])c1ccc(Sc2cccc3cccnc23)c2cccnc12,inactive,–
CCOC(=O)c1[nH]c2ccc(OC)cc2c1NS(=O)(=O)c1ccc(OC)cc1OC,active: 12.6 µM,–
Cc1cc(C)n(-c2ccc(S(N)(=O)=O)cc2[N+](=O)[O-])n1,–,inconclusive: 32.6% [activator]
COc1ccc(CNc2oc(-c3ccc(COc4ccccc4C)o3)nc2C#N)cc1,"inconclusive: 28.2 µM [inhibitor, single point]",–
COc1ccc(C2C(C(=O)Nc3cccnc3)=C(C)Nc3nc(-c4cccs4)nn32)cc1 (centres undefined),"inconclusive: 39.8 µM [inhibitor, partial curve, poor fit]",–
CC(=O)OCC[N+](C)(C)C,inactive and active: 9.92 µM,–
COc1cc(C(C[N+](=O)[O-])c2c(C)cc3ccccn23)ccc1O (centres undefined),"inconclusive: 28.2 µM [inhibitor, single point]",–
CN1CCN(NC(=O)c2cn(-c3ccccc3)nc2-c2cccs2)CC1,"inconclusive: 31.6 µM [inhibitor, single point]",–
Cc1cccc(N2CCN(C(=O)CCn3c(=O)c4cccn4c4cccnc43)CC2C)c1 (centres undefined),"inconclusive: 35.5 µM [inhibitor, partial curve, poor fit]",–
O=C(O)CCCC(=O)N1N=C(c2ccccc2)CC1c1ccc2nccnc2c1 (centres undefined),inactive,–

Structure (SMILES),Potency,"activity change, negative = inhibition"
N=C1/C(=C\c2coc3ccc(O)cc3c2=O)C(=O)N=C2SC=CN12,"inconclusive: 6.31 µM [inhibitor, full curve]",–
Cc1ccc(SCc2cc(=O)c3c(=O)n(-c4ccccc4)[nH]c3[nH]2)cc1,active: 10 µM,–
CCN(CC)c1ccc(NS(=O)(=O)c2cc3[nH]c(=O)c(=O)[nH]c3cc2C)c(C)c1,"inconclusive: 5.01 µM [inhibitor, full curve]",–
O=C(NCc1ccccn1)/C(=N/O)c1ccccc1,"inconclusive: 15.8 µM [inhibitor, partial curve]",–
CCCC1Nc2ccc(C(=O)O)cc2C2C=CCC12 (centres undefined),"inconclusive: 10 µM [inhibitor, partial curve]",–
CCOc1cccc(/C=N/NS(=O)(=O)c2ccc(C)c([N+](=O)[O-])c2)c1O,"inconclusive: 2.82 µM [inhibitor, full curve, poor fit]",–
C/C(=N\NC(=O)Cc1cc(=O)[nH][nH]1)c1cccc([N+](=O)[O-])c1,"inconclusive: 39.8 µM [inhibitor, partial curve, poor fit]",–
Cc1ccc(NC(=O)CSc2nc(-c3ccco3)cc(C(F)(F)F)n2)cc1,inactive,–
Cc1cc(NC(=O)c2ccc(F)cc2)n(CCOC(=O)c2ccc(F)cc2)n1,inactive,–
COc1cccc(C2=NOC(C(=O)NC3CCCCC3)C2)c1 (centres undefined),–,inconclusive: 41.9% [activator]
CC(O)CCC(=O)NNC(=S)Nc1ccccc1 (centres undefined),"inconclusive: 9.92 µM [inhibitor, partial curve]",–
C/C(=N\Nc1ccc(Cl)c(C(=O)O)c1)c1ccc[nH]1,"inconclusive: 28.2 µM [inhibitor, partial curve]",–
Cc1ccc(N=C2CSC(=O)N2)cc1,inactive,–
CCn1nc(C)cc1Nc1ccccc1,active: 14.1 µM,–
Cc1c(Cl)cccc1N1C(=O)CC(N(O)c2ccccc2)C1=O (centres undefined),active: 20 µM,–
COCCCNc1nc2c([nH]1)c(=O)[nH]c(=O)n2C,"inconclusive: 15.7 µM [inhibitor, partial curve]",–
COc1cc(C2c3sc(=O)[nH]c3SC3C4CCC(C4)C23)ccc1O (centres undefined),"inconclusive: 35.5 µM [inhibitor, partial curve]",–
Cc1cc(C)c(C(=O)CSc2nnc(N)s2)c(C)c1,"inconclusive: 22.4 µM [inhibitor, partial curve]",–
CCc1ccc(CNC(=O)C2CCN(c3nn4cc(-c5ccc(F)cc5)nc4s3)CC2)cc1,"inconclusive: 8.91 µM [inhibitor, partial curve]",–
CCCc1cc(-c2n[nH]c(=S)n2C(C)c2ccccc2)cs1 (centres undefined),"inconclusive: 50.1 µM [inhibitor, single point]",–
O=C(O)C(c1ccccc1)N1C(=O)/C(=C\c2ccc(O)c(O)c2)SC1=S (centres undefined),"inconclusive: 50.1 µM [inhibitor, single point]",–
CCCNC(=S)Nc1ccc2nc(-c3ccccn3)c(-c3ccccn3)nc2c1,inactive,–
CC(C)c1ccc(O)c(NC(=O)c2ncn[nH]2)c1,"inconclusive: 15.7 µM [inhibitor, partial curve]",–

Structure (SMILES),Potency,"activity change, negative = inhibition"
O=C(CC(Nc1ccc(Cl)cc1)C(=O)O)c1ccccc1 (centres undefined),"inconclusive: 39.8 µM [inhibitor, single point]",–
Oc1ccc(N2CCN(C(c3cccnc3)c3nnnn3Cc3ccccc3)CC2)cc1 (centres undefined),active: 15.7 µM,–
O=C(O)c1ccc(Nc2nc3c(s2)CCCC3)cc1,"inconclusive: 28.2 µM [inhibitor, single point]",–
O=C(O)c1ccccc1C(c1ccc(O)cc1)c1ccc(O)cc1,"inconclusive: 12.6 µM [inhibitor, partial curve]",–
CCOC(=O)C1=C(c2ccccc2)Nc2ncnn2C1c1cc(OC)cc(OC)c1OC (centres undefined),"inconclusive: 39.5 µM [inhibitor, partial curve]",–
COc1cc(C2CC(=O)Oc3c2c(=O)n(C)c2ccccc32)ccc1O (centres undefined),"inconclusive: 7.08 µM [inhibitor, partial curve] and inconclusive: 12.6 µM [inhibitor, partial curve]",–
O=C(NNC(=S)Nc1ccc(Br)cc1)c1cccnc1,active: 50.1 µM,–
COc1ccc(OC)c(/C=N/NC(=O)CC(=O)NCc2ccccc2)c1,inactive,–
COc1cccc(Nc2nc(-c3sc(N)nc3C)cs2)c1,"inconclusive: 12.5 µM [inhibitor, partial curve]",–
O=C(NNC1CC(=O)N(c2ccc(Cl)cc2)C1=O)c1ccco1 (centres undefined),"inconclusive: 35.2 µM [inhibitor, single point]",–
CCOC(=O)c1ccc(-n2c(=O)[nH]c3ccccc3c2=O)cc1,"inconclusive: 39.8 µM [inhibitor, single point]",–
CCc1ccc(NC(=O)c2sc(-n3nc(C)c(Cc4ccc(OC)cc4)c3C)nc2C)cc1,inactive,–
Cc1[nH][nH]c(=O)c1C(c1ccc(-c2ccc(Cl)cc2Cl)o1)c1c(C)[nH][nH]c1=O,"inconclusive: 24.9 µM [inhibitor, single point]",–
CCN1CCN(c2cc(C)c3cc(NC(=S)N4CCCCC4)ccc3n2)CC1,"inconclusive: 28.2 µM [inhibitor, partial curve]",–
Cc1cc(-c2csc(NC(=O)c3ccc(=O)[nH]c3)n2)c(C)n1Cc1ccco1,"inconclusive: 25.1 µM [activator, partial curve]",–
CCC(=O)NC1=C(Nc2ccc(N)cc2)C(=O)c2ccccc2C1=O,"inconclusive: 100 µM [inhibitor, partial curve]",–
CSc1cccc(NC(=O)CN2C(=O)COc3ccc(Cl)cc32)c1,inactive,–
CCCCc1ccc(NC(=O)c2cc3c(=O)n4ccccc4nc3s2)cc1,inactive,–
N#CCC(=O)c1sccc1-n1cccc1,"inconclusive: 22.4 µM [inhibitor, partial curve]",–
C=CCn1c(N2CCN(c3ccc(OC)cc3)CC2)nc2c1c(=O)[nH]c(=O)n2C,"inconclusive: 35.5 µM [inhibitor, partial curve]",–
C/C(=N\NC(=O)CNc1ccc(F)cc1)c1cc2ccccc2o1,"inconclusive: 50.1 µM [inhibitor, single point]",–
S=C(Nc1ccc(Br)cc1)Nc1ccc2c(c1)OCCO2,"inconclusive: 39.8 µM [inhibitor, partial curve]",–
COC(=O)C1C(c2ccccc2)NC(=O)NC1(O)C(F)(F)Cl (centres undefined),"inconclusive: 10 µM [inhibitor, single point]",–
